Measurements: publication PMC4336329 (PLoS ONE, 2015)
Among all 310,000 compounds or so, about 14,000 (4.5%) showed an effect of 50% or more. Effects have a minus sign here. Some of the results follow.

Each compound was assayed against human ether-à-go-go-related gene (hERG) potassium channel (human, UniProt Q12809) (assay: primary screen, population patch clamp on CHO cells stably expressing hERG).
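Note: peak tail current of the secondary pulse compared with the same well before compound.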

human ether-à-go-go-related gene (hERG) potassium channel, sequence (Q12809 whole entry, looked up): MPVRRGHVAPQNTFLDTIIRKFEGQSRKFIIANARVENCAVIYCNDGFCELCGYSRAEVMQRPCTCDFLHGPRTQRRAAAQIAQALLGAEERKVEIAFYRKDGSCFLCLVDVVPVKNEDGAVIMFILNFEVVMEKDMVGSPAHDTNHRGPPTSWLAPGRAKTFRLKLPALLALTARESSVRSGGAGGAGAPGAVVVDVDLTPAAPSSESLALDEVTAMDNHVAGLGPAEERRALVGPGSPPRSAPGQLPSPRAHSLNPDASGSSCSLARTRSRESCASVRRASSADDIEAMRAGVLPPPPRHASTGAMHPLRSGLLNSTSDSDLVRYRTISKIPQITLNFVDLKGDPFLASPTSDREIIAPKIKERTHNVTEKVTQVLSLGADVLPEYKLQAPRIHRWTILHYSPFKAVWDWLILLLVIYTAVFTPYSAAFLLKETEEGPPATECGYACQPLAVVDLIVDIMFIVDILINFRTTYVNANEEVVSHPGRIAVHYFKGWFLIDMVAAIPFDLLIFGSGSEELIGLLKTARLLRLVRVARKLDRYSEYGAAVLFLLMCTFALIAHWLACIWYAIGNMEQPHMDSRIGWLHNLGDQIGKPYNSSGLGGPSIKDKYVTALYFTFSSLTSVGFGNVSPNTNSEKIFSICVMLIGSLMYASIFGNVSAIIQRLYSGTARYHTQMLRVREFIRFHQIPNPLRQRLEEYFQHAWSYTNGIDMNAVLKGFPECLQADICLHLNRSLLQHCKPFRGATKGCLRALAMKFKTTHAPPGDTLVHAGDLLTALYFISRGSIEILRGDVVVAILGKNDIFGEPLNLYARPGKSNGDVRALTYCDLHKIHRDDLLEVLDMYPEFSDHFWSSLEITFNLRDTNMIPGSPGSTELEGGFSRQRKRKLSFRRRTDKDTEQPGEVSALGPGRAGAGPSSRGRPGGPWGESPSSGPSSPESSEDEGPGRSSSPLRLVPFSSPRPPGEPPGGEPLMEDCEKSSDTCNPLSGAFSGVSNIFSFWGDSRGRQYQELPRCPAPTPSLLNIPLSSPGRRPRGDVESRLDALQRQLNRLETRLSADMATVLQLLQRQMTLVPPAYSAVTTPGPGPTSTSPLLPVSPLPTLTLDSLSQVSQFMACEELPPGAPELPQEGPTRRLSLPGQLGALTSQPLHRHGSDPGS

Going from `C/C(=N\Nc1ccccc1[N+](=O)[O-])c1ccc(N2CCOCC2)cc1` to `Cc1ccc(NC(=O)CCCNC(=O)c2ccc(Cl)cc2)cc1S(=O)(=O)N1CCOCC1`, the “hERG current change (%, negative = inhibition) at 10uM” value falls from 17% to -17.9%.

Compared with `O=C1c2cccnc2C(=O)N1c1cccc([N+](=O)[O-])c1`, `COC(=O)Cc1[nH]n(-c2ccccc2)c(=O)c1C(C)=Nc1ccccc1` is lower in “hERG current change (%, negative = inhibition) at 10uM” value: 26.7% for the first, -12.1% for the second.

First: C/C=C\C=C/C(=O)Nc1cccc(C2=NOC3(C2)C[C@@H](C(N)=O)N(C(=O)c2ccc(Cl)cc2)C3)c1 (some centres unmarked)
Second: CN1CCN(c2ccccc2NC(=O)c2ccc(-c3ccc(Cl)cc3Cl)o2)CC1
The “hERG current change (%, negative = inhibition) at 10uM” value of the first is higher: 3.22% for the first, -3.82% for the second.

Going from `Cc1cn(C)c(=O)n(C)c1=O` to `Cc1c2cnn(CC(=O)NCCCN3CCCCC3)c(=O)c2c(C)n1Cc1ccccc1`, the “hERG current change (%, negative = inhibition) at 10uM” value rises from 4.46% to 9.96%.

Going from `Cc1ccc(S(=O)(=O)Nc2ccc(NC(=O)c3cccs3)cc2)cc1` to `C/C(=N\NS(=O)(=O)c1ccc(C)cc1)c1cccs1`, the “hERG current change (%, negative = inhibition) at 10uM” value falls from 12% to 8.66%.

Compared with `CCOC(=O)c1c(-c2ccc(C)o2)csc1NC(=S)NC(=O)c1cccs1`, `COc1ccccc1C(=O)COC(=O)CCN=C1NS(=O)(=O)c2ccccc21` is lower in “hERG current change (%, negative = inhibition) at 10uM” value: 25.8% for the first, -14.5% for the second.

First: O=C(NCCN1CCOCC1)c1cc(-c2ccc(Cl)s2)nc2ccccc12
Second: O=C(COc1ccccc1Cl)NCCCNC(=O)c1ccncc1
The “hERG current change (%, negative = inhibition) at 10uM” value of the first is lower: -5.22% for the first, 12.5% for the second.

First: Cc1ccccc1NS(=O)(=O)c1cc2c(cc1C)NC(=O)CO2
Second: Cc1cc(C)c2sc(N(CCN(C)C)C(=O)CCS(=O)(=O)c3ccccc3)nc2c1.Cl
The “hERG current change (%, negative = inhibition) at 10uM” value of the first is lower: -22.5% for the first, 23% for the second.

Going from `Cc1ccc(C(C)C)c(OCc2nc(-c3nonc3N)no2)c1` to `CCOc1ccc(-c2noc(CCC(=O)NCCc3ccccc3)n2)cc1OC`, the “hERG current change (%, negative = inhibition) at 10uM” value rises from 3.03% to 9.68%.

Going from `CN1C(N)=NC(=O)/C1=C/c1ccccc1F` to `CCCC(c1nnnn1CCOC)N1CCN(Cc2ccccc2)CC1.Cl` (centres unmarked), the “hERG current change (%, negative = inhibition) at 10uM” value falls from 5.16% to -12.1%.

Compared with `COCCNC(=O)/C(C#N)=C/c1c(N2CCN(c3ccc(OC)cc3)CC2)nc2c(C)cccn2c1=O`, `COc1cc2c(cc1OC)CN(CC(=O)Nc1ccc(S(=O)(=O)N(C)C)cc1)CC2` is higher in “hERG current change (%, negative = inhibition) at 10uM” value: -25.7% for the first, 5.24% for the second.

For `O=C(OC(C(=O)NCc1ccc2c(c1)OCO2)c1ccncc1)c1ccc(Cl)nc1` (centres unmarked), the “hERG current change (%, negative = inhibition) at 10uM” value was -45.4%.
